{
  "source": "PubChem BioAssay AID624296",
  "about": "(National Center for Advancing Translational Sciences (NCATS), 2012)",
  "note": "Hit rate of the full screen: of about 350,000 compounds, about 9,900 (2.8%) were called active. The inconclusive results got no clear call from the source; some entries with a clear call stand among them for comparison. The call rests on the fitted dose curve; in most records, active means well fitted activation curve with a large enough effect; inconclusive means small, poorly fitted or top-dose-only effect; inactive means no such curve, though single readings can be large or run the other way. Potencies of inconclusive entries are left out as doubtful fits.",
  "data": [
    {"test": "A quantitative high throughput screen for small molecules that induce DNA re-replication in MCF 10a normal breast cells; further: nearly all actives have a fitted effect of over 50% in size; further: potency means the concentration at half of the fitted maximal effect; tags describe the fitted curve by direction and shape; on activity, positive = re-replication: % of control where 0% means no effect.", "conditions": "MCF 10A DNA re-replication, Hoechst nuclear intensity, 48 h; activity, positive = re-replication: at 46.1 µM (top of the series)", "values": [
      {"molecule": "CC(=O)c1cccc(NC(=O)C(C)OC(=O)c2cccc(S(=O)(=O)N3CCN(C)CC3)c2)c1", "note": "(configuration not stated)", "Potency": "inactive"},
      {"molecule": "CC(=O)NC1CCN(CC(=O)Nc2nccs2)CC1", "Potency": "inconclusive [activator, single point]"},
      {"molecule": "O=C(NC1CCCCCC1)C(=S)N1CCCC1", "Potency": "inconclusive [activator, single point]"},
      {"molecule": "COc1ccc(N2CC(C(=O)Nc3ccccc3N3CCCC3)CC2=O)c(OC)c1", "note": "(configuration not stated)", "Potency": "inconclusive [activator, single point]"},
      {"molecule": "CC(C)c1ccc(CNc2ccc([N+](=O)[O-])cn2)cc1", "Potency": "inconclusive [activator, single point]"},
      {"molecule": "Cc1ccc(NC(=O)Cc2cn3ccsc3n2)nc1", "Potency": "inconclusive [activator, partial curve, poor fit]"},
      {"molecule": "CCN(CC)c1ccc(-c2n[nH]c(=S)n2-c2ccccc2C)cc1", "Potency": "inconclusive [activator, partial curve, poor fit]"},
      {"molecule": "O=C(NN1C(=O)c2cc(Br)ccc2NC1c1cc(Br)cc(Br)c1O)c1ccncc1", "note": "(configuration not stated)", "Potency": "inconclusive [activator, single point]"},
      {"molecule": "N=c1c(C(=O)NC2CCCC2)cc2c(=O)n3ccccc3nc2n1Cc1ccccc1", "Potency": "inconclusive [activator, full curve, poor fit]"},
      {"molecule": "CCC(C)NC(=O)c1cc2cc3ccc(OC)cc3nc2s1", "note": "(configuration not stated)", "Potency": "inconclusive [activator, partial curve, poor fit]"},
      {"molecule": "O=C(NCCN1CCOCC1)c1ccc2c(c1)N(Cc1c(F)cccc1Cl)C(=O)c1ccccc1S2", "Potency": "inconclusive [activator, partial curve, poor fit]"},
      {"molecule": "COc1ccc(CCNCc2ccc(OCc3ccccc3)cc2)cc1", "Potency": "inconclusive [activator, single point]"},
      {"molecule": "CCC(C)NS(=O)(=O)c1ccc(NS(=O)(=O)c2ccccc2[N+](=O)[O-])cc1", "note": "(configuration not stated)", "Potency": "inconclusive [activator, partial curve, poor fit]"},
      {"molecule": "Cc1nnc(NC(=O)c2nn(CC(C)C)c(=O)c3ccccc23)s1", "Potency": "inactive"},
      {"molecule": "Cn1c(CC(=O)NNC(=O)c2ccccc2[N+](=O)[O-])nc2ccccc21", "Potency": "inactive"},
      {"molecule": "CCOc1ccc(NC(=O)CN(C)C(=O)CN2C(=O)c3ccc([N+](=O)[O-])cc3C2=O)cc1OCC", "Potency": "inactive"},
      {"molecule": "Cc1noc(C)c1C(=O)N1CCN(c2cccc(Cl)c2)CC1", "Potency": "inconclusive [activator, partial curve, poor fit]"},
      {"molecule": "CCC(C)N(C(=O)c1csnn1)C(C(=O)NCc1ccc(F)cc1)c1ccco1", "note": "(configuration not stated)", "Potency": "inactive"},
      {"molecule": "C/C(=N\\NC(=S)Nc1ccc(F)cc1)c1ccc2c(c1)OCCO2", "Potency": "active: 5.8 µM"},
      {"molecule": "CC(OC(=O)c1ccc(Cl)c(S(=O)(=O)N2CCc3ccccc32)c1)C(=O)Nc1ncc(Cl)cc1Cl", "note": "(configuration not stated)", "Potency": "inconclusive [activator, single point]"},
      {"molecule": "COc1ccc(Cl)cc1NC(=O)CN(C)C(=O)c1cc2c(F)cccc2s1", "Potency": "inconclusive [activator, partial curve, poor fit]"},
      {"molecule": "O=C1CCC(C(=O)N2CCN(c3cnccn3)CC2)CN1CCc1ccc(Cl)cc1", "note": "(configuration not stated)", "Potency": "inconclusive [activator, partial curve, poor fit]"},
      {"molecule": "CCC(C)Sc1nc2c(c(=O)[nH]c(=O)n2C)n1Cc1ccc(Cl)cc1", "note": "(configuration not stated)", "Potency": "inconclusive [activator, single point]"},
      {"molecule": "CC(C)(C)c1csc(NNC(=O)c2ccc(Cl)cc2)n1", "Potency": "inconclusive [activator, single point]"},
      {"molecule": "COC(=O)/C=C/C(=O)Nc1cccnc1", "Potency": "inconclusive [activator, partial curve]"},
      {"molecule": "S=C(Nc1ccccc1)Nc1nc2ccccc2n1CCOc1ccccc1", "Potency": "inconclusive [activator, single point]"},
      {"molecule": "C#CC1(O)CCC2C3CCC4=C(CCC(=O)C4)C3CCC21C", "note": "(configuration not stated)", "Potency": "inactive"},
      {"molecule": "COc1ccc(/C=C2\\SC(=O)NC2=S)cc1OC", "Potency": "inconclusive [activator, partial curve]"},
      {"molecule": "Cc1cccc(-n2c(C)cc(/C=N\\NC(=O)c3cccs3)c2C)c1", "Potency": "inconclusive [activator, partial curve, poor fit]"},
      {"molecule": "Cc1cc(-c2cccc([N+](=O)[O-])c2)nc2ccc3ccccc3c12", "Potency": "inconclusive [activator, single point]"},
      {"molecule": "NC(=O)CC(NC(=O)Cc1cccc2ccccc12)c1ccc(N2CCCCCC2)c([N+](=O)[O-])c1", "note": "(configuration not stated)", "Potency": "inconclusive [activator, partial curve, poor fit]"},
      {"molecule": "O=C(NC(=S)Nc1ccccc1N1CCCCC1)c1ccc(F)cc1Cl", "Potency": "inactive"},
      {"molecule": "CCOc1ccc2nc(NC(=O)c3ccco3)sc2c1", "Potency": "inactive"},
      {"molecule": "CCn1c(/C=N/NC(=O)c2ccc(OC)cc2)nc2ccccc21", "Potency": "inconclusive [activator, partial curve, poor fit]"},
      {"molecule": "Cc1cc(Cl)c(OCCOCCN2CCNCC2)c(Cl)c1", "Potency": "inconclusive [activator, partial curve, poor fit]"},
      {"molecule": "O=C(CCS(=O)(=O)c1ccccc1)Nc1nc2cc3c(cc2s1)OCO3", "Potency": "inconclusive [activator, single point]"},
      {"molecule": "CCS(=O)(=O)c1nc(S(=O)(=O)c2ccc(Cl)cc2)c(N2CCN(C)CC2)s1", "Potency": "inactive"},
      {"molecule": "O=C(COC(=O)c1c2c(nc3ccccc13)/C(=C\\c1cccs1)CCC2)Nc1ccccc1", "Potency": "inconclusive [activator, partial curve, poor fit]"},
      {"molecule": "O=C(Nc1nc2ccccc2[nH]1)c1cccc(F)c1", "Potency": "inconclusive [activator, single point]"},
      {"molecule": "CCc1nc(NCc2ccco2)c2oc3ccccc3c2n1", "Potency": "inconclusive [activator, single point]"},
      {"molecule": "COc1cc(Cl)c(C)cc1NC(=O)CSc1cc(Cl)ccc1Cl", "Potency": "inconclusive [activator, single point]"},
      {"molecule": "C/C(=N\\NC(=O)c1ccc(Cl)cc1)c1ccc(N2CCOCC2)cc1", "Potency": "inactive"},
      {"molecule": "CCc1ccc(/C=C2\\SC(=S)N(CCCC(=O)Nc3ccccn3)C2=O)cc1", "Potency": "inactive"},
      {"molecule": "CCOc1ccc(N(CC(=O)NCc2ccc(F)cc2)C(=O)CCC(=O)Nc2nccs2)cc1", "Potency": "inconclusive [activator, single point]"},
      {"molecule": "CC(=O)NC(CC(=O)Nc1ccc2c(c1)OCCO2)c1ccccc1", "note": "(configuration not stated)", "Potency": "inactive"},
      {"molecule": "O=C(CSc1nnnn1-c1ccccc1)Nc1ncc(Cc2ccccc2Cl)s1", "Potency": "inactive"},
      {"molecule": "Cn1cc(SCC(=O)Nc2nccs2)c2ccccc21", "Potency": "inactive"},
      {"molecule": "CC(C)(CNc1ccc(S(=O)(=O)C(F)(F)F)cc1[N+](=O)[O-])N1CCOCC1", "Potency": "inactive"},
      {"molecule": "Cn1cccc1C(=O)OCC(=O)c1c[nH]c2ccccc12", "Potency": "inactive"},
      {"molecule": "CCCc1nc(SCC(=O)N2CCc3ccccc3C2)c2ccccc2n1", "Potency": "inconclusive [activator, single point]"},
      {"molecule": "CC(C)CC1NC(=S)N(Cc2ccccc2)C1=O", "note": "(configuration not stated)", "Potency": "inconclusive [activator, single point]"},
      {"molecule": "CCCCN(C(=O)NC(=O)C1=C(N2CCOCC2)/C(=C/c2ccccc2)CC1)S(C)(=O)=O", "Potency": "inconclusive [activator, single point]"},
      {"molecule": "Cc1ccc(C)c(NC(=O)COC(=O)c2nn(C)c(=O)c3ccccc23)c1", "Potency": "inactive"},
      {"molecule": "Cc1cccc(N2C(=O)C(O)=C(C(=O)c3cccs3)C2c2ccc(Cl)cc2)n1", "note": "(configuration not stated)", "Potency": "inconclusive [activator, partial curve, poor fit]"},
      {"molecule": "O=C(Nc1ccn(Cc2c(F)c(F)cc(F)c2F)n1)c1ccc(COc2ccccc2Cl)cc1", "Potency": "inconclusive [activator, partial curve, poor fit]"},
      {"molecule": "O=C(Oc1ccc(Cl)cc1)N1CCOCC1", "Potency": "inactive"},
      {"molecule": "Cc1ccc(-c2cc(C(F)(F)F)n3ncc(C(=O)NCc4ccco4)c3n2)cc1", "Potency": "inactive"},
      {"molecule": "CCCCc1nc(C(N)=O)c2[nH]c(=O)n(-c3ccc(OC)cc3OC)c2n1", "Potency": "inconclusive [activator, single point]"},
      {"molecule": "Cc1cc2cc(CN3C(=O)c4ccccc4C3=O)ccc2n1C", "activity, positive = re-replication": "inconclusive: -48.2% [activator]"},
      {"molecule": "Cc1c(CN(C)C)c2c(n1Cc1ccccc1)C(=O)c1ccc(Br)cc1-2", "Potency": "inconclusive [activator, single point]"},
      {"molecule": "O=C(NN=C(c1ccccc1)c1ccccn1)c1ccccc1", "Potency": "inconclusive [activator, partial curve]"},
      {"molecule": "Nc1ncc(Br)cc1S(=O)(=O)Nc1cc(C(F)(F)F)cc(C(F)(F)F)c1", "Potency": "inconclusive [activator, partial curve, poor fit]"},
      {"molecule": "CC(C)N1CCc2c(sc(NC(=O)CCS(=O)(=O)c3ccccc3)c2C#N)C1", "Potency": "inconclusive [activator, single point]"},
      {"molecule": "CCn1nc(C)c(CNC(=O)C2CCC(=O)N(Cc3ccc(Cl)cc3)C2)c1C", "note": "(configuration not stated)", "Potency": "inconclusive [activator, single point]"},
      {"molecule": "CCOC(=O)c1cnc2ccc(OCC)cc2c1NCc1cccnc1", "Potency": "active: 23.1 µM"},
      {"molecule": "C/C=C(/C)C(=O)O[C@@H]1c2c(ccc3ccc(=O)oc23)OC(C)(C)[C@@H]1OC(C)=O", "Potency": "inconclusive [activator, partial curve, poor fit]"},
      {"molecule": "CC1(c2ccccc2)NC(=O)N(CC(=O)Nc2ccccc2N2CCCCC2)C1=O", "note": "(configuration not stated)", "Potency": "inactive"}
    ]}
  ]
}
